From the supplement of paper PMC7125110
± gives the standard error. This sample is rich in variants without activity.

B1: glmS ribozyme (parent)
chain: AUAAAAGCGCCAGAACUACAGAAAUGUAGUUGACGAGGAGGAGGUUUAUCGAAUUUUCGGCGGAUGCCUCCAAA

Legend:
Details in all cases: with glucosamine-6-phosphate
glucosamine-6-phosphate [1] = variants of: B1; assay: self-cleavage kobs at 40 uM GlcN6P; higher = faster cleavage; RNA array
Procedure, shortened: (§1)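 E. coli RNA polymerase transcribed barcoded ribozyme variants in situ on sequenced MiSeq chips, which were tracked via a hybridised Cy3 probe at 37 °C. Tiles were imaged over ~14 h after glucosamine-6-phosphate (40 μM to 10 mM) in HEPES/KCl/Mg(OAc)2 buffer was flowed in. Normalised per-tile medians were fit to one- or two-exponential decays for kobs, and kcat and KM came from weighted Michaelis–Menten fits.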

glucosamine-6-phosphate [2] = variants of: B1; assay: self-cleavage kobs at 640 uM GlcN6P; higher = faster cleavage; RNA array
Procedure, shortened: as §1

glucosamine-6-phosphate [3] = variants of: B1; assay: self-cleavage kobs at 2500 uM GlcN6P; higher = faster cleavage; RNA array
Procedure, shortened: as §1

glucosamine-6-phosphate [4] = variants of: B1; assay: self-cleavage kobs at 10000 uM GlcN6P; higher = faster cleavage; RNA array
Procedure, shortened: as §1

glucosamine-6-phosphate [5] = variants of: B1; assay: kcat; higher = faster cleavage; RNA array
Procedure, shortened: as §1

glucosamine-6-phosphate [6] = variants of: B1; assay: self-cleavage kobs at 160 uM GlcN6P; higher = faster cleavage; RNA array
Procedure, shortened: as §1

Row | Variant | self-cleavage kobs at 40 uM GlcN6P (glucosamine-6-phosphate [1]) | self-cleavage kobs at 640 uM GlcN6P (glucosamine-6-phosphate [2]) | self-cleavage kobs at 2500 uM GlcN6P (glucosamine-6-phosphate [3]) | self-cleavage kobs at 10000 uM GlcN6P (glucosamine-6-phosphate [4]) | kcat (glucosamine-6-phosphate [5]) | self-cleavage kobs at 160 uM GlcN6P (glucosamine-6-phosphate [6])
1 | C8A C11U | < 1e-05 s⁻¹ | < 1e-05 s⁻¹ | < 1e-05 s⁻¹ |  |  | 
2 | C8G G9C U55A | < 1e-05 s⁻¹ | < 1e-05 s⁻¹ | < 1e-05 s⁻¹ | < 1e-05 s⁻¹ |  | 
3 | C10U A33C C58G | < 1e-05 s⁻¹ |  |  |  |  | 
4 | C34U A42U | < 1e-05 s⁻¹ | < 1e-05 s⁻¹ | < 1e-05 s⁻¹ |  | < 1e-05 s⁻¹ | < 1e-05 s⁻¹
5 | G9C C61A | < 1e-05 s⁻¹ | < 1e-05 s⁻¹ | < 1e-05 s⁻¹ | < 1e-05 s⁻¹ |  | < 1e-05 s⁻¹
6 | C10A C34G | < 1e-05 s⁻¹ | < 1e-05 s⁻¹ | < 1e-05 s⁻¹ | < 1e-05 s⁻¹ |  | 
7 | G7C C8A U45G U65A | < 1e-05 s⁻¹ |  | < 1e-05 s⁻¹ | < 1e-05 s⁻¹ |  | 
8 | A33G U49C |  |  | < 1e-05 s⁻¹ |  | < 1e-05 s⁻¹ | 
9 | A6G C16A G38U | < 1e-05 s⁻¹ |  |  |  |  | 
10 | A6U A64U | < 1e-05 s⁻¹ |  | < 1e-05 s⁻¹ | < 1e-05 s⁻¹ |  | < 1e-05 s⁻¹
11 | G9C G32C C34U G41C U47G A48G A64U | < 1e-05 s⁻¹ |  |  | < 1e-05 s⁻¹ |  | 
12 | C11G G32C G59U | < 1e-05 s⁻¹ |  |  |  |  | 
13 | G7C C11U G29A G40A A42U G62U | < 1e-05 s⁻¹ |  |  |  |  | 
14 | C10U G41U U55G | < 1e-05 s⁻¹ |  | < 1e-05 s⁻¹ | < 1e-05 s⁻¹ |  | 
15 | G9A A12G G13U A15U C34U U55A C70U | < 1e-05 s⁻¹ |  |  |  |  | 
16 | A6G G35U | < 1e-05 s⁻¹ | < 1e-05 s⁻¹ | < 1e-05 s⁻¹ | < 1e-05 s⁻¹ |  | < 1e-05 s⁻¹
17 | C10U G40A G41A | < 1e-05 s⁻¹ | < 1e-05 s⁻¹ |  |  |  | 
18 | G37C A39C |  |  | < 1e-05 s⁻¹ |  | < 1e-05 s⁻¹ | < 1e-05 s⁻¹
19 | A39C C50U | < 1e-05 s⁻¹ | < 1e-05 s⁻¹ |  |  | < 1e-05 s⁻¹ | < 1e-05 s⁻¹
20 | G38U A39C |  | < 1e-05 s⁻¹ |  |  | < 1e-05 s⁻¹ | < 1e-05 s⁻¹
21 | G9A A36U G40A G60C | < 1e-05 s⁻¹ |  |  | < 1e-05 s⁻¹ |  | 
22 | C8G G9C G29U A52G A64C | < 1e-05 s⁻¹ |  |  | < 1e-05 s⁻¹ |  | 
23 | C58G C61A G63C A64U |  |  |  |  | < 1e-05 s⁻¹ | 
24 | G9C U54C | < 1e-05 s⁻¹ | < 1e-05 s⁻¹ |  | < 1e-05 s⁻¹ |  | < 1e-05 s⁻¹

Row | Variant | self-cleavage kobs at 40 uM GlcN6P (glucosamine-6-phosphate [1]) | self-cleavage kobs at 640 uM GlcN6P (glucosamine-6-phosphate [2]) | self-cleavage kobs at 2500 uM GlcN6P (glucosamine-6-phosphate [3]) | self-cleavage kobs at 10000 uM GlcN6P (glucosamine-6-phosphate [4]) | kcat (glucosamine-6-phosphate [5]) | self-cleavage kobs at 160 uM GlcN6P (glucosamine-6-phosphate [6])
25 | G38C C71G |  |  |  | < 1e-05 s⁻¹ | < 1e-05 s⁻¹ | 
26 | G9U A42G U47A | < 1e-05 s⁻¹ | < 1e-05 s⁻¹ | < 1e-05 s⁻¹ |  |  | 
27 | C10A G44A | < 1e-05 s⁻¹ | < 1e-05 s⁻¹ |  | < 1e-05 s⁻¹ |  | 
28 | A36C G37U |  |  |  | < 1e-05 s⁻¹ | < 1e-05 s⁻¹ | 
29 | A6G C34U | < 1e-05 s⁻¹ | < 1e-05 s⁻¹ | < 1e-05 s⁻¹ | < 1e-05 s⁻¹ |  | < 1e-05 s⁻¹
30 | G7A A48C A52U | < 1e-05 s⁻¹ |  |  |  |  | 
31 | C10G G40U U55G | < 1e-05 s⁻¹ |  | < 1e-05 s⁻¹ | < 1e-05 s⁻¹ |  | 
32 | G9U C16U G43A G60U | < 1e-05 s⁻¹ |  |  | < 1e-05 s⁻¹ |  | 
33 | A6G G29A | < 1e-05 s⁻¹ |  |  |  |  | 
34 | C10G G62U C71G | < 1e-05 s⁻¹ |  |  |  |  | 
35 | G7U C8U C67U | < 1e-05 s⁻¹ |  |  |  |  | 
36 | C8U G43C | < 1e-05 s⁻¹ | < 1e-05 s⁻¹ | < 1e-05 s⁻¹ | < 1e-05 s⁻¹ |  | < 1e-05 s⁻¹
37 | G7A C58A A64G G66A | < 1e-05 s⁻¹ |  |  | < 1e-05 s⁻¹ |  | 
38 | C11A A12G G32A G43U G66A C67U C68G | < 1e-05 s⁻¹ |  |  | < 1e-05 s⁻¹ |  | 
39 | C8A G32A | < 1e-05 s⁻¹ | < 1e-05 s⁻¹ | < 1e-05 s⁻¹ | < 1e-05 s⁻¹ |  | 
40 | A6G A48G A53C | < 1e-05 s⁻¹ |  |  | < 1e-05 s⁻¹ |  | 
41 | C10U A52C U57G | < 1e-05 s⁻¹ | < 1e-05 s⁻¹ | < 1e-05 s⁻¹ | < 1e-05 s⁻¹ |  | 
42 | C11A U49G C67G | 4.47e-05 ± 1.8e-05 s⁻¹ |  |  |  |  | 
43 | C8U A39C A53U U55A G59A U65C | < 1e-05 s⁻¹ |  | < 1e-05 s⁻¹ | < 1e-05 s⁻¹ |  | 
44 | A6G A36C A42C | < 1e-05 s⁻¹ |  | < 1e-05 s⁻¹ | < 1e-05 s⁻¹ |  | 
45 | C8U A64G | < 1e-05 s⁻¹ | < 1e-05 s⁻¹ | < 1e-05 s⁻¹ |  |  | < 1e-05 s⁻¹
46 | C10U G29A A36G G66U C68U | < 1e-05 s⁻¹ |  |  | < 1e-05 s⁻¹ |  | 
47 | G7U G44U A48G C70G | < 1e-05 s⁻¹ | < 1e-05 s⁻¹ | < 1e-05 s⁻¹ | < 1e-05 s⁻¹ |  | 
